# In all, about 310,000 compounds went through this assay and about 11,000 (3.5%) were called active. This list was built around the results that the source calls inconclusive (neither active nor inactive); the mix of calls is not that of the screen. Calls come from the whole dose curve; as a rule, active = well fitted inhibition curve with a large enough effect; inconclusive = small, poorly fitted or top-dose-only effect, or effect the other way; inactive = flat fitted curve, though single readings scatter. Potencies of inconclusive entries are left out as doubtful fits.
# Assay: VP16 counterscreen qHTS for inhibitors of ROR gamma transcriptional activity;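 note: Gal4-VP16 expression switched on by copper sulfate through the metallothionein promoter; nearly all actives have a fitted effect of over 50% in size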
# Settings: Drosophila S2 Gal4-VP16 UAS-luciferase, luminescence, 20 h; series mostly up to 53.6 µM
# Potency is the fitted concentration of half-maximal effect; tags give direction and shape of the fitted curve.
row,SMILES,Potency
1,C/C(=N\NC(=O)Cc1ccc(Cl)cc1)c1ccccn1,active: 2.51 µM
2,CC(=O)Nc1ccc(NC(=O)CC2SC(=O)N(CC(=O)c3ccccc3)C2=O)cc1 (stereo not drawn),inactive
3,Cc1cccc(-c2noc(CCCC(=O)NCC3CCCO3)n2)c1 (stereo not drawn),"inconclusive [inhibitor, partial curve]"
4,Cc1cccc(NC(=O)C(=O)NCCCN2CCOCC2)c1,"inconclusive [activator, full curve, poor fit]"
5,CCC(C(=O)NNC(=O)c1cnccn1)c1ccccc1 (stereo not drawn),active: 15.8 µM
6,O=C(CN1C(=O)NC(Cc2c[nH]c3ccccc23)C1=O)NCCc1ccccc1 (stereo not drawn),inactive
7,O=C(Nc1ccc(N2CCOCC2)cc1)c1ccc([N+](=O)[O-])o1,"inconclusive [inhibitor, single point]"
8,CSc1ccccc1NC(=S)Nc1cccc(C(F)(F)F)c1,"inconclusive [inhibitor, single point]"
9,CCCCN(CC)c1nc(N)c2c(N)nc(OCC)cc2c1C#N,inactive
10,Cc1cnc(NC(=O)CSc2nnc(COc3c(C)cccc3C)o2)s1,"inconclusive [inhibitor, single point]"
11,COc1ccccc1C(=O)Nc1nnc(SCC(=O)NC2CCCC2)s1,"inconclusive [inhibitor, full curve, poor fit]"
12,CN(C)S(=O)(=O)c1cccc(NC(=O)CSc2cccc3cccnc23)c1,"inconclusive [inhibitor, single point]"
13,COc1ccc(-c2nsc3c(N4CCCCC4C)ncnc23)cc1 (stereo not drawn),"inconclusive [inhibitor, partial curve]"
14,NC1=NN=C(N2N=C(c3ccco3)CC2(O)C(F)(F)F)n2ncnc2C1 (stereo not drawn),inactive
15,Cc1cccc(NC(=S)NC(C)CCc2ccccc2)c1 (stereo not drawn),active: 3.16 µM
16,COc1cccc(-c2nc(-c3ccccn3)no2)c1,active: 4.47 µM
17,COc1cccc(/C=N/n2c(-c3cc(C)[nH]n3)n[nH]c2=S)c1O,inactive
18,O=c1c2ccccc2c(C=Nc2ccccc2O)c(O)n1-c1nccs1,"inconclusive [inhibitor, single point]"
19,Cc1ccc(S(=O)(=O)N2CCCCC2)cc1NC(=O)c1ccc2ccccc2n1,"inconclusive [inhibitor, full curve, poor fit]"
20,CCc1cc(CNC(=O)c2ccc3nc(Cc4ccc(OC)c(OC)c4)oc3c2)on1,"inconclusive [inhibitor, partial curve]"
21,CCN(CC)C(=O)Cn1nnc(-c2ccc(C)o2)n1,inactive
22,O=C(c1ccc(CSc2nc3ccncc3[nH]2)cc1)N1CCCCCC1,"inconclusive [inhibitor, single point]"
23,c1ccc(-c2nnc(-c3ccncc3)nc2-c2ccccc2)cc1,inactive
24,CO/N=C(\c1ccccc1)c1cccnc1,inactive
25,Oc1ccc(-c2csc(Nc3ccccn3)n2)c(O)c1,"inconclusive [inhibitor, single point]"

row,SMILES,Potency
1,O=C(CN1CCOCC1)Nc1nc(-c2ccc3c(c2)CCN3S(=O)(=O)c2ccccc2)cs1,"inconclusive [inhibitor, single point]"
2,O=C(CC1C(=O)CCCC1=O)c1ccccc1,"inconclusive [inhibitor, partial curve]"
3,C[C@H]1[C@@H](O)[C@@H](C)\C=C/C=C\C=C/C=C\C=C/C=C\C=C/[C@@H](O[C@H]2O[C@@H](C)[C@@H](O)[C@@H](N)[C@@H]2O)C[C@@H]2O[C@](O)(C[C@@H](O)C[C@@H](O)[C@@H](O)CC[C@@H](O)C[C@@H](O)CC(=O)O[C@H]1C)C[C@@H](O)[C@H]2C(=O)O (stereo in doubt),inactive
4,O=C(Nc1cccc(O)c1)c1cc2nc(-c3ccccc3)cc(-c3ccccc3)n2n1,"inconclusive [inhibitor, single point]"
5,Cc1sc2ncnc(NCCc3ccc(S(N)(=O)=O)cc3)c2c1C,active: 2.51 µM
6,COC(=O)c1ccccc1NC(=O)CNc1cc(OC)c(OC)cc1C,"inconclusive [inhibitor, single point]"
7,O=C(CN1CCN(S(=O)(=O)c2ccc(Cl)cc2)CC1)NC(=O)NC1CCCCC1,inactive
8,Cc1cc(-c2nnc(-c3cc4ccccc4oc3=O)o2)c(C)n1-c1ccccc1,"inconclusive [inhibitor, single point]"
9,COc1ccc(-c2cn3c(C)c(C(=O)Nc4ccncc4)sc3n2)cc1,active: 12.6 µM
10,CN1CCN(c2ncc3nc(-c4cccc(C#N)c4)c(=O)n(CCc4ccccc4)c3n2)CC1,inactive
11,Cc1ccc(N2CC(C(=O)NCc3ccc4c(c3)OCO4)CC2=O)cc1C (stereo not drawn),inactive
12,COc1cccc(NC(=S)NNC(=O)C(C)n2nc(C)c([N+](=O)[O-])c2C)c1 (stereo not drawn),inactive
13,Cc1cccc(NC(=O)c2oc3c(c2C)C(=O)CC(C)(C)C3)n1,"inconclusive [activator, partial curve]"
14,CCCc1cc(=O)oc2cc(OCC(=O)NCCc3c[nH]c4ccccc34)ccc12,"inconclusive [inhibitor, single point]"
15,S=C(Nc1ccccc1)Nc1nc2ccccc2n1CCOc1ccc(Br)cc1,active: 2.24 µM
16,CCOC(=O)C(C)Sc1nnc2c3ccccc3n(C)c2n1 (stereo not drawn),inactive
17,C/C(=N\NC(N)=S)c1ccc2c(c1)OCCO2,"inconclusive [inhibitor, single point]"
18,Cc1cccc(N(CC(=O)N/N=C/c2ccc(OCC(=O)NCc3ccco3)cc2)S(C)(=O)=O)c1C,inactive
19,Cc1cccc(NC(=O)Cn2c(=O)n(Cc3ccco3)c(=N)c3c4c(sc32)COC(C)(C)C4)c1,inactive
20,CNC(=S)N/N=C/c1c(C)c(C(=O)c2ccc(F)cc2)n2ccccc12,active: 7.94 µM
21,O=C1CC(N(O)C2CC(=O)N(Cc3ccccc3)C2=O)C(=O)N1Cc1ccccc1 (stereo not drawn),"inconclusive [inhibitor, single point]"
22,O=C(O)c1ccccc1NC(=O)c1cc2ccccc2oc1=O,"inconclusive [inhibitor, partial curve]"
23,CC(C)C1Cc2c(sc3[nH]c(=S)n(Cc4ccccc4)c(=O)c23)CO1 (stereo not drawn),active: 0.562 µM
24,COc1ccc(/C=C/C(=O)c2c(OC)cc(O)cc2OC)cc1,"inconclusive [activator, partial curve]"
25,CC(Oc1ccc(Cl)cc1Cl)C(=O)NN=C1CCN(C)CC1 (stereo not drawn),active: 10 µM

row,SMILES,Potency
1,CN(C)c1ccc(/C=C2\N=C(c3ccc(Cl)c([N+](=O)[O-])c3)NC2=O)cc1,inactive
2,CCn1c(=O)cc(SCC(=O)Nc2ccc(OC)c(OC)c2)c2ccccc21,"inconclusive [inhibitor, single point]"
3,Cc1cccc(NC(=S)NC2CCCC2)n1,active: 2.82 µM
4,CS(=O)(=O)N(Cc1ccc(F)cc1)Cc1nc2ccccc2c(=O)[nH]1,inactive
5,O=C(O)c1cnn(-c2nc(-c3ccc(F)cc3)cs2)c1C(F)(F)F,inactive
6,COc1ccc(OC)c(NC(=O)C(=O)NNC(=O)C23CC4CC(CC(C4)C2)C3)c1,"inconclusive [inhibitor, single point]"
7,CC(=O)Nc1ccc(N=Cc2c(O)c(C(=O)Nc3ccccc3)cc3ccccc23)cc1,inactive
8,Cc1cc(C(=O)CCl)c(C)n1-c1c(C)n(C)n(-c2ccccc2)c1=O,"inconclusive [inhibitor, single point]"
9,O=C(N1CCN(c2cccc(Cl)c2)CC1)C1(c2cccs2)CCOCC1,inactive
10,COc1ccc2nc(NC(=O)CN(c3ccc(C)cc3)S(=O)(=O)c3c(C)nn(C)c3C)sc2c1,active: 17.8 µM
11,Cn1nnc(NC(=S)NC(=O)c2cccc3ccccc23)n1,active: 3.55 µM
12,C/C(=N\NC(=O)c1ccco1)c1ccc(-c2ccccc2)cc1,"inconclusive [inhibitor, partial curve]"
13,Cc1ccc(C(=O)CSc2nnc(COc3cccc4cccnc34)o2)cc1,"inconclusive [inhibitor, single point]"
14,Cc1cc(N/N=C/c2ccccc2Br)nc2ccccc12,active: 15.8 µM
15,C(=C\c1ccccc1)/C=N/N1CCN(c2ccccn2)CC1,"inconclusive [activator, partial curve, poor fit]"
16,O=C(CN1CCN(C/C=C/c2ccccc2)CC1)Nc1cc([N+](=O)[O-])ccc1Cl,"inconclusive [inhibitor, single point]"
17,Cc1nc([N+](=O)[O-])c(Br)n1Cc1ccccc1,"inconclusive [inhibitor, single point]"
18,Cc1c(C)c(C)c(S(=O)(=O)NCCc2ccncc2)c(C)c1C,inactive
19,O=C(NC(=S)NCc1ccc(-c2nc3ccccc3s2)cc1)c1ccco1,active: 5.62 µM
20,O=C(NC(=S)Nc1ccc(S(=O)(=O)Nc2nccs2)cc1)c1ccc(F)cc1,"inconclusive [activator, single point]"
21,O=C(NC(=S)N1CCCCC1)C12CC3CC(CC(C3)C1)C2,active: 12.6 µM
22,O=C(NC1(C(F)(F)F)NC(=O)N(c2ccc(F)cc2)C1=O)c1cccs1 (stereo not drawn),"inconclusive [activator, single point]"
23,Cc1ccc(-c2csc3ncnc(Sc4nnc(CN5CCCCCC5=O)o4)c23)cc1,"inconclusive [inhibitor, single point]"

# Reference: PubChem BioAssay AID2546 (National Center for Advancing Translational Sciences (NCATS), 2010)
